Among all 45,000 compounds or so, about 65 (0.1%) were called active. Calls come from the whole dose curve; as a rule, active = well fitted activation curve with a large enough effect; inconclusive = small, poorly fitted or top-dose-only effect; inactive = no such curve, though single readings can be large or run the other way. The list shows a part of the results.
Target: Galactocerebrosidase (Homo sapiens) (UniProt P54803)
Assay: A Novel Cell-Based Assay to Identify Small Molecules for B -Galactocerebrosidase; note: nearly all actives have a fitted effect of over 65% in size; for activation: 0% is about no effect
Settings: 145M-Twi-hGALC-G270D cells, HMU-beta-Gal fluorescence, 48 h; series mostly up to 57.5 µM; activation: at the top concentration
Outline: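 qHTS, 1536-well; 145M-Twi-hGALC-G270D cells (WT line also made) in DMEM/F12 + 10% FBS; compound incubation on live cells; HMU-β-gal 0.1 mM final, pH 5.2, NaTC; carbonate stop; fluorescence increase = enhanced residual activity.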
Potency is the fitted concentration of half-maximal effect.

Chain of UniProt P54803 (P54803 whole entry, looked up): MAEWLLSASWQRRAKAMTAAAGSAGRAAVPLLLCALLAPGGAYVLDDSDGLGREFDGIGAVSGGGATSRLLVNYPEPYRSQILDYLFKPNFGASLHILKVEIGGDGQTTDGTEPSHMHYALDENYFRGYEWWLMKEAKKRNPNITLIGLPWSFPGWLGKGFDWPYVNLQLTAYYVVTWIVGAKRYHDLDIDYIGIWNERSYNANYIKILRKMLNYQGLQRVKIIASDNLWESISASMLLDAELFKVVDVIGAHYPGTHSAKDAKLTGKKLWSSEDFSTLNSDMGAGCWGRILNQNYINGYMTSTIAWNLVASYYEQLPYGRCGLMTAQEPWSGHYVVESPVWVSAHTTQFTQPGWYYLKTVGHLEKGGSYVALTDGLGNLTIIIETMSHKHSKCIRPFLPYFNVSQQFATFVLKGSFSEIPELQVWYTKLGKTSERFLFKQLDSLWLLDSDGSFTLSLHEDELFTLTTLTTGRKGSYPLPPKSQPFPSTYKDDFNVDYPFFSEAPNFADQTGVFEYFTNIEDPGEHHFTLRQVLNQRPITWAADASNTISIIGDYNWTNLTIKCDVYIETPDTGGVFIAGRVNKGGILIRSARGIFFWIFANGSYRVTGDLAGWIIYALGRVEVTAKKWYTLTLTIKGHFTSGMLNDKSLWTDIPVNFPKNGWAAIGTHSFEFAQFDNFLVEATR

SMILES	activation	Potency
CCC(Cn1nnc2ccccc2c1=O)NC(=O)Nc1ccc(C)c(C)c1 (stereo unspecified)	inactive: 10.2%	
Cc1c(Cn2ccnc2)c2ccccc2n1CCC(=O)O	inactive: -8.01%	
Cc1ccc(-c2nnc(Nc3cccc(O)c3)c3ccccc23)cc1S(=O)(=O)N1CCN(C)CC1	inactive: -16.1%	
Cc1ccccc1OCC(O)Cn1c(=N)n(CCN2CCCCC2)c2ccccc21 (stereo unspecified)	inactive: -15.9%	
Cc1ccc(-c2nc(SCC(=O)NCc3ccco3)c3c(=O)n(C)c(=O)n(C)c3n2)cc1	inactive: -11.8%	
Cc1ccc(Nc2nnc(-c3ccc(C)c(S(=O)(=O)NCc4nc5ccccc5[nH]4)c3)c3ccccc23)cc1	inactive: -11%	
CCc1cccc(CC)c1NC(=O)CN1C(=O)C(=O)c2ccccc21	inactive: -16.7%	
CC(C)c1ccc(NC(=O)Cn2c(=O)n(CCc3ccccc3)c(=O)c3ccccc32)cc1	inactive: 3.22%	
CCc1nc(-c2cc(S(=O)(=O)N3CCN(c4ccccc4OC)CC3)ccc2OC)no1	inactive: -9.59%	
CCOC(=O)Cn1c(=O)c2c(nc3n2CCN3c2ccc(CC)cc2)n(C)c1=O	inactive: -9.48%	
COc1cc(Cl)c(C)cc1Nc1ncnc2c1nc1n2CCCC1	inactive: -11.7%	
COc1cc(NS(=O)(=O)c2ccc3[nH]c4c(c3c2)CCCCCC4)cc(OC)c1	inactive: -10.2%	
Cc1nc2nc(SCC(=O)NCc3ccccc3Cl)nn2c(C)c1Cc1ccccc1	inactive: -7.92%	
CCc1ccc(NC(=O)C(CC)n2c(=O)c(C(F)(F)F)nc3ccccc32)cc1 (stereo unspecified)	inactive: -7.08%	
Cc1ccc(NC(=O)CC(C)S(=O)(=O)c2ccc3c(c2)NC(=O)CO3)cc1Cl (stereo unspecified)	inactive: -9.72%	
COc1cccc(NS(=O)(=O)c2ccc(-c3cc(C)no3)s2)c1	inactive: -16%	
Cc1ccc(Nc2nn3c(=O)c4cc5c(cc4nc3s2)OCO5)cc1Cl	inactive: -16.5%	
CCOC(=O)c1cc(-c2ccccc2)n(-c2cccc(C(=O)Nc3ccc(OCC)cc3)c2)c1C	inactive: -4.87%	
COc1ccc(Cl)cc1NC(=O)CN1C(=O)COc2ccc(S(=O)(=O)NC3CCCC3)cc21	inactive: -12.1%	
Cc1ccc(-c2nnc(Nc3ccc(O)cc3)c3ccccc23)cc1S(=O)(=O)N1CCOCC1	inactive: -18.4%	
CCCOc1cccc(C(=O)N(Cc2ccc(C)o2)C2CCS(=O)(=O)C2)c1 (stereo unspecified)	inactive: -15%	
CN(C(=O)CSc1cn(CC(=O)N2CCOCC2)c2ccccc12)c1ccccc1	inactive: -13.9%	
CCCCN(CC)CCNC(=O)Cn1cc2c(n1)-c1c(oc(C(=O)N3CCCC3)c1C)CC2	inactive: -10.6%	
COc1cccc(Cn2c(=O)n(Cc3ccco3)c(=O)c3oc4ccccc4c32)c1	inactive: 19.3%	

SMILES	activation	Potency
CC(=O)N1CCCc2cc(S(=O)(=O)N3CCC(C(=O)NCc4cccc(C)c4)CC3)ccc21	inactive: -13.8%	
COC(=O)c1ccccc1NC(=O)c1c(NC(=O)c2ccco2)sc2c1CCC(C(C)(C)C)C2 (stereo unspecified)	inactive: 21.1%	
COCCNc1sc(S(=O)(=O)c2ccc(C)cc2)nc1S(=O)(=O)c1ccc(C)cc1	inactive: -10.4%	
CC(=O)Nc1ccc(NC(=O)CSc2nccn2C)cc1	inactive: -21%	
CCOC(=O)c1cc2c(=O)n3ccccc3nc2n(CC(C)C)c1=NC(=O)c1c(-c2c(F)cccc2Cl)noc1C	inactive: -13.3%	
CCCN(C(=O)c1noc2c1COc1ccc(C)cc1-2)c1ccc(Cl)c(Cl)c1	inactive: -30.7%	
O=C(CCS(=O)(=O)c1nc(-c2ccc3c(c2)OCO3)cc(C(F)(F)F)n1)Nc1ccccc1F	inactive: -26%	
CCN(CC)C(=O)c1sc2c(c1C)c(=O)n(Cc1ccccc1)c(=O)n2Cc1ccc(Cl)cc1	inactive: -11.3%	
CCc1cccc(-n2nnc(-c3nc(-c4ccccc4Cl)no3)c2N)c1	inactive: -18.5%	
CCN(C(=O)CCn1cnc2onc(-c3ccc(F)cc3)c2c1=O)c1ccc(OC)cc1	inactive: -6.24%	
COc1ccc(Nc2nc3ccccc3c3nnc(C)n23)cc1Cl	inactive: -8.93%	
Cc1cc(C)c(NC(=O)Cn2c(=O)n(Cc3ccco3)c(=O)c3ccc(C(=O)NC4CCCC4)cc32)c(C)c1	inactive: -13.4%	
O=C(NCC(c1cccnc1)N1CCc2ccccc2C1)C(=O)Nc1ccc(Cl)cc1 (stereo unspecified)	inactive: -17.6%	
Cc1ccc(-c2noc(CSc3nnc(Cc4ccccc4)n3-c3cccc(C)c3)n2)cc1	inactive: 5.98%	
Cn1nnc2c(NCCc3ccccc3)ncnc21	inactive: -1.13%	
Cc1ccc(NC(=O)CSc2cn(CC(=O)N3CCCCCC3)c3ccccc23)cc1	inactive: -1.66%	
CCCCCCCCCCCCCCCCCCOCC(O)CO (stereo unspecified)	inactive: -10.5%	
CN1Cc2cc(C(=O)N3CCC(C4CCNCC4)CC3)ccc2NC(CC(=O)O)C1=O (stereo unspecified)	inactive: -15.5%	
Cc1cccc(N2CCN(C(=O)c3cnn(-c4cccc(Cl)c4C)c3C3CCNCC3)CC2)c1C	inactive: -19.6%	
CCOCCCNC(=O)C(c1ccc(C)cc1)N(Cc1cccs1)C(=O)c1ccc(NC(C)=O)cc1 (stereo unspecified)	inactive: -12.5%	
CC(=O)c1cccc(NC(=O)c2c(N3CCCC3=O)c3cc(F)ccc3n2C)c1	inactive: -13.8%	
COc1ccccc1NC(=O)c1c(NC(=O)c2ccco2)sc2c1CCC(C(C)(C)C)C2 (stereo unspecified)	inactive: -7.11%	
CCSc1ncc(Cl)c(C(=O)Nc2c(C(=O)c3ccc(C)c(F)c3)oc3ccccc23)n1	inactive: -14.1%	
C[N+](C)(CCOc1ccccc1)Cc1cccs1	inactive: 5.98%	

SMILES	activation	Potency
C[N+]1(C)CCC(OC(=O)C(O)(c2ccccc2)C2CCCC2)C1 (stereo unspecified)	inactive: -9.14%	
CCCc1nc2ccccc2n2c(-c3ccc(C)cc3)c3c(=O)n(C)c(=O)n(C)c3c12	inactive: -8.48%	
CC(C)c1ccc(NC(=O)c2cccc3c2C(=O)N(C2CCCCC2)C3)cc1	inactive: -9.3%	
Cc1ccc2c(c1)N(CC(=O)NCc1ccccc1Br)C(=O)c1cccnc1O2	inactive: -6.22%	
CCOC(=O)c1cc(NC(=O)c2ccc(C)cc2)c(=O)n2c1oc1ccc(Cl)cc12	inactive: 12%	
O=c1oc2ccc(Br)cc2cc1-c1csc(-c2ccccc2)n1	inactive: -8.48%	
Cc1ccc(N2CC(NC(=O)c3ccc(S(=O)(=O)N4CCCCC4)cc3)CC2=O)cc1 (stereo unspecified)	inactive: -2.8%	
COC(=O)c1ccc(NC(=O)c2cc(=O)c3ccc(C)cc3o2)cc1	inactive: 3.06%	
COc1cc(/C=C(\C#N)C(=O)Nc2ccc(C)cc2)ccc1OCc1cc(=O)n2nc(C)sc2n1	inactive: -6%	
CCc1cccc(NS(=O)(=O)c2c(C)nc3sc(CC)nn3c2=O)c1	inactive: -9.74%	
COc1ccc(N2CC(NC(=O)c3cc4ccccc4o3)CC2=O)cc1OC (stereo unspecified)	inactive: -0.645%	
Cc1ccc(NC(=O)Cn2c(=O)n(CCc3ccccc3)c(=O)c3c4c(sc32)CCCC4)c(C)c1	inactive: -16.2%	
CN(C(=O)C1=CC(c2ccc3c(c2)OCO3)=NS(=O)(=O)N1C)c1ccccc1	inactive: -16.5%	
Cn1nnc2c(NCc3ccccc3Cl)ncnc21	inactive: -7.17%	
Cc1nc2c(c(C)nn2-c2ccccc2)c(C)c1CCC(=O)NCCc1ccccc1	inactive: -4.09%	
CCCC(=O)Nc1nnc2n1CCS2	inactive: -18.3%	
O=C(CSc1nc2c(c(=O)[nH]1)CN(Cc1ccc3c(c1)OCO3)CC2)Nc1cccc(Cl)c1	inactive: -12.9%	
COc1ccc(CC(=O)NCc2nc3cccnc3n2Cc2ccc(C)cc2)cc1OC	inactive: -12.1%	
Cc1cccc(Cn2cc3c(=O)n(CC(=O)Nc4ccc(C)c(F)c4)nc-3c3cc(F)ccc32)c1	inactive: -9.52%	
CCOc1ccc(Oc2nc(NC)nc(N3CCOCC3)n2)nn1	inactive: -1.93%	
CCOC(=O)c1noc2ncnc(N3CCC(C)CC3)c12	inactive: -12.6%	
Cc1cccc(-c2nnn3c2nc(NCCc2ccc(S(N)(=O)=O)cc2)c2cc(Cl)ccc23)c1	inactive: -16.1%	
CS(=O)(=O)N(CC(=O)NCCc1ccccc1)c1cc(C(F)(F)F)ccc1Cl	inactive: -13.9%	
CSc1ccc(-c2nc3ccc(C)cn3c2Nc2ccccc2C)cc1	inactive: -8.46%	

SMILES	activation	Potency
COc1ccc(-c2cc(C)nc3c(-c4ccc(OC)c(OC)c4)c(C)nn23)cc1	inactive: -12.7%	
COc1ccc(N2CCN(C(=O)c3cc4ccc5cccnc5c4[nH]3)CC2)cc1	inactive: -13.1%	
O=C(NCC12CC3CC(CC(C3)C1)C2)c1cc2nc(-c3ccccc3)cc(C(F)(F)F)n2n1	inactive: -15.8%	
CCCCCn1c(=O)[nH]c2cc(C(=O)N3CCN(c4cccc(C)c4)C(C)C3)ccc2c1=O (stereo unspecified)	inactive: -0.986%	
Cc1cccc(Oc2nc3c(c(=O)n(C)c(=O)n3C)n2C)c1	inactive: -10.9%	
COc1ccc(OC)c(CCNc2ncnc3onc(-c4ccc(F)cc4)c23)c1	inactive: 9.92%	
O=C1CCCc2cc(S(=O)(=O)NCC3CCC(C(=O)Nc4ccccc4F)CC3)ccc2N1 (stereo unspecified)	inactive: -0.567%	
CNC(=O)c1cc(Nc2nnc(-c3ccc(O)cc3)c3ccccc23)ccc1OC	inactive: -0.895%	
Fc1cc(Br)ccc1Nc1c2c(nc3nc(-c4cccs4)nn13)CCCC2	inactive: -23%	
CC(NC(=O)c1ccccc1NC(=O)c1nsc2ccccc12)c1ccccc1 (stereo unspecified)	inactive: -17.2%	
CC(=O)c1ccc(NC(=O)C2=CC(c3ccc4c(c3)OCO4)=NS(=O)(=O)N2C)cc1	inactive: -9.81%	
CCCCOc1ccc(C(=O)N2CCN(CCc3ccccn3)CC2)cc1		active: 8.91 µM
COC(=O)c1ccc(OC)c(Cn2c(=O)n(Cc3ccccc3)c(=O)c3c2c2cc(OC)ccc2n3C)c1	inactive: -4.31%	
CCOC(=O)c1cccc(NC(=O)Cn2ncc3c4ccccc4n(Cc4ccccc4)c3c2=O)c1	inactive: -1.26%	
Cc1ccc(CNC(=O)CCCCCn2c(=O)c3sccc3n(CC(=O)N(C)c3ccccc3)c2=O)cc1	inactive: -7.32%	
Cc1ccc(C(=O)Nc2ccc3oc(-c4ccc(C(C)(C)C)cc4)nc3c2)cc1	inactive: 11.1%	
COc1ccc(-c2ccc(=O)n(CC(=O)Nc3ccc(C)cc3C)n2)cc1	inactive: -3.74%	
O=c1n(Cc2cccc(C(F)(F)F)c2)c2ccccc2c2nc(-c3ccccc3)nn12	inactive: -5.34%	
Cc1ccc(-c2ccc(CCC(=O)O)n2-c2cccc(O)c2)cc1	inactive: -16.4%	
COc1ccc(-c2noc(CCC(=O)NCc3ccc(C)cc3)n2)cc1	inactive: -6.86%	
C#CCOc1ccc(-c2nnc(Nc3cccc(C)c3)c3ccccc23)cc1	inactive: -3.96%	
Cc1cccc(Cn2c(=O)n(CCc3ccccc3)c(=O)c3c(C)c(C)sc32)c1	inactive: -6.75%	
Cc1ccc(NC(=O)c2cc(C)nc3c2c(C)nn3-c2cccc(Cl)c2C)c(C)c1	inactive: -1.08%	
Cc1ccc(NS(=O)(=O)c2ccc3[nH]c(=O)ccc3c2)cc1N(C)C	inactive: -24.8%	

From PubChem BioAssay AID1159614 (National Center for Advancing Translational Sciences (NCATS), 2016)
